In the supplement of paper PMC10037445:
Whole data set: some 2,900 compounds, median “NF-kB SEAP reporter activity, fold change vs agonist alone” near 0.99, cut for the highest 2% near 2.6. Some of the results follow.

What was measured:
RAW-Dual [1] = assay: NF-kB SEAP reporter activity, fold change vs agonist alone; cytotoxicity flag (confluency mask): not cytotoxic; higher = enhanced NF-kB activity
Outline: (§1)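 After 50 nL of library stock was delivered by pin tool to RAW-Dual macrophages (50,000 cells/well, DMEM, 384-well plates), a PRR agonist was added 1 h later and the plates were kept at 37 °C, 5% CO2. Twenty hours later, IRF was read from supernatant by QuantiLuc luminescence and NF-κB by QuantiBlue absorbance at 620 nm. Reporter activity is stated as fold change over agonist-alone wells. Wells with IncuCyte confluency under 70% of agonist controls in both mask sets were counted as cytotoxic.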

RAW-Dual [2] = assay: NF-kB SEAP reporter activity, fold change vs agonist alone; higher = enhanced NF-kB activity
Outline: as §1

RAW-Dual [3] = assay: NF-kB SEAP reporter activity, fold change vs agonist alone; cytotoxicity flag (confluency mask): cytotoxic (confluency <70% of control); higher = enhanced NF-kB activity
Outline: as §1

[4] = agonist: ODN 1826 (TLR9) 0.5 ug/mL
[5] = agonist: Pam2CSK4 (TLR2/6) 0.1 ug/mL
[6] = agonist: Pam3CSK4 (TLR2/1) 0.1 ug/mL
[7] = library stock concentration (final ~1000-fold dilution): 10 mM, cytotoxicity flag (confluency mask): not cytotoxic, agonist: Imiquimod (TLR7) […]
[8] = library stock concentration (final ~1000-fold dilution): 10 mM, cytotoxicity flag (confluency mask): not cytotoxic, agonist: MPLA (TLR4) […]
[9] = library stock concentration (final ~1000-fold dilution): 10 mM water, cytotoxicity flag (confluency mask): not cytotoxic, agonist: Imiquimod (TLR7) […]
[10] = library stock concentration (final ~1000-fold dilution): 10 mM water, cytotoxicity flag (confluency mask): not cytotoxic, agonist: MPLA (TLR4) […]

N#CC1CC2CC2N1C(=O)C(N)C12CC3CC(CC(O)(C3)C1)C2 (stereo unspecified) (library stock concentration (final ~1000-fold dilution): 10 mM)
NF-kB SEAP reporter activity (RAW-Dual [1]; agonist: LPS (TLR4) 0.1 ug/mL): 1.1
NF-kB SEAP reporter activity (RAW-Dual [1]; [4]): 0.964
NF-kB SEAP reporter activity (RAW-Dual [1]; [5]): 0.892
NF-kB SEAP reporter activity (RAW-Dual [1]; [6]): 1.05

N#CC1CC2CC2N1C(=O)C(N)C12CC3CC(CC(O)(C3)C1)C2 (stereo unspecified)
NF-kB SEAP reporter activity (RAW-Dual [2]; [7]): 0.914
NF-kB SEAP reporter activity (RAW-Dual [2]; [8]): 0.875

O=C(O)CNC(=O)c1nc(Cl)c2ccccc2c1O (library stock concentration (final ~1000-fold dilution): 10 mM)
NF-kB SEAP reporter activity (RAW-Dual [1]; agonist: LPS (TLR4) 0.1 ug/mL): 0.889
NF-kB SEAP reporter activity (RAW-Dual [1]; [4]): 0.952
NF-kB SEAP reporter activity (RAW-Dual [1]; [5]): 0.873
NF-kB SEAP reporter activity (RAW-Dual [1]; [6]): 1.04

O=C(O)CNC(=O)c1nc(Cl)c2ccccc2c1O
NF-kB SEAP reporter activity (RAW-Dual [2]; [7]): 1.01
NF-kB SEAP reporter activity (RAW-Dual [2]; [8]): 0.966

CCOCc1nc2c(N)nc3ccccc3c2n1CC(C)(C)O
NF-kB SEAP reporter activity (RAW-Dual [2]; library stock concentration (final ~1000-fold dilution): 3.2 mM, cytotoxicity flag (confluency mask): not cytotoxic, agonist: Imiquimod (TLR7) […]): 1.27
NF-kB SEAP reporter activity (RAW-Dual [2]; library stock concentration (final ~1000-fold dilution): 3.2 mM, cytotoxicity flag (confluency mask): not cytotoxic, agonist: MPLA (TLR4) […]): 2.17

CCOCc1nc2c(N)nc3ccccc3c2n1CC(C)(C)O (library stock concentration (final ~1000-fold dilution): 3.2 mM)
NF-kB SEAP reporter activity (RAW-Dual [1]; agonist: LPS (TLR4) 0.1 ug/mL): 3.55
NF-kB SEAP reporter activity (RAW-Dual [1]; [4]): 1.69
NF-kB SEAP reporter activity (RAW-Dual [1]; [5]): 0.415
NF-kB SEAP reporter activity (RAW-Dual [1]; [6]): 0.673

CSCCNc1nc(SCCC(F)(F)F)nc2c1ncn2C1OC(COP(=O)(O)OP(=O)(O)C(Cl)(Cl)P(=O)(O)O)C(O)C1O (stereo unspecified) (library stock concentration (final ~1000-fold dilution): 10 mM water)
NF-kB SEAP reporter activity (RAW-Dual [1]; agonist: LPS (TLR4) 0.1 ug/mL): 1.15
NF-kB SEAP reporter activity (RAW-Dual [1]; [4]): 1.26
NF-kB SEAP reporter activity (RAW-Dual [1]; [5]): 1.18
NF-kB SEAP reporter activity (RAW-Dual [1]; [6]): 0.935

CSCCNc1nc(SCCC(F)(F)F)nc2c1ncn2C1OC(COP(=O)(O)OP(=O)(O)C(Cl)(Cl)P(=O)(O)O)C(O)C1O (stereo unspecified)
NF-kB SEAP reporter activity (RAW-Dual [2]; [9]): 0.972
NF-kB SEAP reporter activity (RAW-Dual [2]; [10]): 1.04

Cn1cc(-c2ccc(S(=O)(=O)n3ccc(/C=C/C(=O)Nc4ccccc4N)c3)cc2)cn1 (library stock concentration (final ~1000-fold dilution): 10 mM)
NF-kB SEAP reporter activity (RAW-Dual [3]; agonist: LPS (TLR4) 0.1 ug/mL): 4.11
NF-kB SEAP reporter activity (RAW-Dual [3]; [4]): 3.13
NF-kB SEAP reporter activity (RAW-Dual [3]; [5]): 1.14
NF-kB SEAP reporter activity (RAW-Dual [3]; [6]): 2.27

Cn1cc(-c2ccc(S(=O)(=O)n3ccc(/C=C/C(=O)Nc4ccccc4N)c3)cc2)cn1
NF-kB SEAP reporter activity (RAW-Dual [2]; library stock concentration (final ~1000-fold dilution): 10 mM, cytotoxicity flag (confluency mask): cytotoxic (confluency <70% of control), agonist: Imiquimod (TLR7) […]): 1.68
NF-kB SEAP reporter activity (RAW-Dual [2]; library stock concentration (final ~1000-fold dilution): 10 mM, cytotoxicity flag (confluency mask): cytotoxic (confluency <70% of control), agonist: MPLA (TLR4) […]): 2.37

CCc1oc2ccccc2c1C(=O)c1cc(Br)c(O)c(Br)c1 (library stock concentration (final ~1000-fold dilution): 10 mM)
NF-kB SEAP reporter activity (RAW-Dual [1]; agonist: LPS (TLR4) 0.1 ug/mL): 1.11
NF-kB SEAP reporter activity (RAW-Dual [1]; [4]): 0.953
NF-kB SEAP reporter activity (RAW-Dual [1]; [5]): 0.961
NF-kB SEAP reporter activity (RAW-Dual [1]; [6]): 1.12

CCc1oc2ccccc2c1C(=O)c1cc(Br)c(O)c(Br)c1
NF-kB SEAP reporter activity (RAW-Dual [2]; [7]): 0.997
NF-kB SEAP reporter activity (RAW-Dual [2]; [8]): 1.19

COC1OC(COS(=O)(=O)O)C(OC2OC(C(=O)O)C(OC3OC(COS(=O)(=O)O)C(OC4OC(C(=O)O)C(OC5OC(COS(=O)(=O)O)C(O)C(O)C5NS(=O)(=O)O)C(O)C4O)C(OS(=O)(=O)O)C3NS(=O)(=O)O)C(O)C2OS(=O)(=O)O)C(O)C1NS(=O)(=O)O (stereo unspecified) (library stock concentration (final ~1000-fold dilution): 10 mM water)
NF-kB SEAP reporter activity (RAW-Dual [1]; agonist: LPS (TLR4) 0.1 ug/mL): 1.06
NF-kB SEAP reporter activity (RAW-Dual [1]; [4]): 1.3
NF-kB SEAP reporter activity (RAW-Dual [1]; [5]): 1.25
NF-kB SEAP reporter activity (RAW-Dual [1]; [6]): 1.04

COC1OC(COS(=O)(=O)O)C(OC2OC(C(=O)O)C(OC3OC(COS(=O)(=O)O)C(OC4OC(C(=O)O)C(OC5OC(COS(=O)(=O)O)C(O)C(O)C5NS(=O)(=O)O)C(O)C4O)C(OS(=O)(=O)O)C3NS(=O)(=O)O)C(O)C2OS(=O)(=O)O)C(O)C1NS(=O)(=O)O (stereo unspecified)
NF-kB SEAP reporter activity (RAW-Dual [2]; [9]): 1.04
NF-kB SEAP reporter activity (RAW-Dual [2]; [10]): 1.06

Cc1ccccc1N=Nc1ccc(NC(=O)c2ccnn2C)c(C)c1 (library stock concentration (final ~1000-fold dilution): 10 mM)
NF-kB SEAP reporter activity (RAW-Dual [1]; agonist: LPS (TLR4) 0.1 ug/mL): 1.07
NF-kB SEAP reporter activity (RAW-Dual [1]; [4]): 0.913
NF-kB SEAP reporter activity (RAW-Dual [1]; [5]): 0.908
NF-kB SEAP reporter activity (RAW-Dual [1]; [6]): 0.949
